Reference: paper PMC4336329 (PLoS ONE, 2015)
The whole screen tested about 310,000 compounds, of which about 2,200 (0.71%) showed an effect of 50% or more. The effect is printed as a negative number. This is one part of the list.

What follows are compounds tested against human ether-à-go-go-related gene (hERG) potassium channel (human, UniProt Q12809) (assay: primary screen, population patch clamp on CHO cells stably expressing hERG).
Chain of human ether-à-go-go-related gene (hERG) potassium channel (Q12809 whole entry, looked up): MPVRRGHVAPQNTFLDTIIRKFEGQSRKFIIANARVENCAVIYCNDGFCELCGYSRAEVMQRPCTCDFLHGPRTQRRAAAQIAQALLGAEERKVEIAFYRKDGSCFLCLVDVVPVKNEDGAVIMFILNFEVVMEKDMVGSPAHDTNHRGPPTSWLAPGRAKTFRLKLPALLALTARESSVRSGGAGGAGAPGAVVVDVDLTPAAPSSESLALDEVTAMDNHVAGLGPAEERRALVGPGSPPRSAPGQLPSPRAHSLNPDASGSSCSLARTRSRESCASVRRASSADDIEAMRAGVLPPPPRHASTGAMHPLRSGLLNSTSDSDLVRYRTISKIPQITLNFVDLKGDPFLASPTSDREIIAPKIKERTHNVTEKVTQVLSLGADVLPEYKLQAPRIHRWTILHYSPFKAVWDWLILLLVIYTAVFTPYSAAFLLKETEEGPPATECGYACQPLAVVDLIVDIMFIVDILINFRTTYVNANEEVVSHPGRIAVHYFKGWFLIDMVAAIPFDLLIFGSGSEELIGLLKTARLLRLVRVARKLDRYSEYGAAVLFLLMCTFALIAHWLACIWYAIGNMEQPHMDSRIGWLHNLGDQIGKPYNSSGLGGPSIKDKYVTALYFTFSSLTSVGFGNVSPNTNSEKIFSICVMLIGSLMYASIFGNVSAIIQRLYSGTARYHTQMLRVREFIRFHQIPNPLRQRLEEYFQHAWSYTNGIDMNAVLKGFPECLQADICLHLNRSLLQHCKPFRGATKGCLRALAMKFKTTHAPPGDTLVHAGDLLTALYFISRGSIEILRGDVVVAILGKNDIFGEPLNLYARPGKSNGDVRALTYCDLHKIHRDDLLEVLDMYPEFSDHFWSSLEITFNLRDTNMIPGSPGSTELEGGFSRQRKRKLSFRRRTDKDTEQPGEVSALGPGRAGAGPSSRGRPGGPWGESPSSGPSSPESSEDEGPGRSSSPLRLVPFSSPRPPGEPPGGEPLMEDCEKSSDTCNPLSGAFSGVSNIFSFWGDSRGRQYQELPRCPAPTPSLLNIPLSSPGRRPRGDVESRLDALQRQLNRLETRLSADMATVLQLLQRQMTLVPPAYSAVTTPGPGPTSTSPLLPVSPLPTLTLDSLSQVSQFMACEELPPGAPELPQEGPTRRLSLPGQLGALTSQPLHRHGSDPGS

Compound	hERG current change (%, negative = inhibition) at 1uM
c1ccc2c(c1)ccc1nnc(-c3ccc4c(c3)OCO4)n12	13.4%
CC(=O)N1CN2CN(C(C)=O)CC(C(=O)c3ccc(Br)cc3)(C2)C1	4.24%
CC(C)(C)c1nc(CN2CCOCC2)ccc1O.Cl	-4.54%
O=C(Nc1ccc2ccccc2c1)c1ccc(Cl)cc1	13.2%
COc1ccccc1CC(=O)NNS(=O)(=O)c1ccc([N+](=O)[O-])cc1	7.35%
O=C(CCc1ccccc1)Nc1ccccc1C(=O)NCc1ccco1	12.1%
Cc1ccc(C(=O)NNC(=O)CSc2nnc(C(C)C)n2C)cc1	19.1%
O=C(COC(=O)c1cccs1)NCCCc1ccccc1	7.39%
COCCC(=O)N1CCC(Oc2ccc(C(=O)N(C)CCCC3CCCC3)cc2)CC1	-1.26%
CC(=Nc1ccc(C)c(C)c1)C1=C(O)CSC1=O	13.8%
CC(C)C12CN3CC(C(C)C)(CN(C1)C3c1ccccc1O)C2=O (centres unmarked)	14.2%
O=C(CN1C2=NCCCN2c2ccccc21)c1cccs1	2.43%
O=C(NCC1CCCCC1)c1cccnc1Cl	17.4%
O=C(COC(=O)CCc1c[nH]c2ccccc12)NCc1ccccc1	9.38%
COc1cc(-c2cc(C(=O)O)c3cc4c(cc3n2)OCCO4)cc(OC)c1OC	-14.3%
O=C(Nc1ccc2c(c1)OCO2)c1ccccc1SCC(=O)N1CCCC1	11%
CN(C)CCCNc1cn[nH]c(=O)c1Cl	-4.64%
COc1ccc(CNc2oc(-c3ccccc3)nc2C#N)cc1	-2.27%
CCN(C(=O)COC(=O)c1oc2ccccc2c1C)c1c(N)n(Cc2ccccc2)c(=O)[nH]c1=O	10.6%
COc1cccc(C(=O)N2CCN(S(C)(=O)=O)CC2)c1	13.4%
CCCc1n(CC(O)COCc2ccccc2)c2ccccc2[n+]1C.[I-] (centres unmarked)	5.44%
Oc1[nH]c2ccc(Br)cc2c1N=Nc1ccc(C(F)(F)F)cn1	7.86%
O=C(Cn1cc[n+](CC(=O)c2ccc(Cl)cc2Cl)c1)c1ccc(Cl)cc1Cl.[Br-]	-27.8%

Compound	hERG current change (%, negative = inhibition) at 1uM
COc1ccccc1N=CC1=C(O)CC(c2ccccc2)CC1=O (centres unmarked)	4.29%
Cc1cc(NC(=O)c2ccccc2[N+](=O)[O-])ccc1Br	3.42%
O=C(CN1CCN(c2ccccn2)CC1)Nc1ccc(OC(F)(F)F)cc1	-9.61%
CCOC(=O)C(NC(=O)c1ccccc1)(Nc1cccc(C)n1)C(F)(F)F (centres unmarked)	15.7%
CCCc1cc(=O)[nH]c2nnc(SCC(=O)Nc3nnc(SCC)s3)n12	19.7%
O=C(O)c1cc(Cl)nc2ccccc12	7.94%
O=C(CSc1nnc(-c2ccco2)o1)NC1CC2CCC1C2 (centres unmarked)	9.76%
CCOC(=O)C1CCCN(C(=O)c2ccc3nc(-c4cccc(OC)c4)oc3c2)C1 (centres unmarked)	2.93%
CCOC(=O)CSc1nnc(CNC(=O)c2ccco2)n1-c1ccc(F)cc1	3.36%
Cc1cccc(C)c1NC(=O)CN(C1CCCCC1)S(C)(=O)=O	9.1%
Cc1ccc(C(=O)O)cc1NC(=S)NC(=O)c1ccc(COc2ccccc2)cc1	9.45%
O=C(Nc1ccncc1)c1ccc2ccccc2c1	7.22%
N#CN=C1CCCCCN1CC(N)=O	0.377%
COc1ccccc1C(=O)Nc1cccc(S(=O)(=O)N2CCCC2)c1	12.3%
CCOc1ccc(-c2nnn(CC(=O)NCc3cccs3)n2)cc1	11.3%
CC(C)(C)c1ccc(C(=O)OCC(=O)N2CCC(c3ccccc3)=N2)cc1	3.62%
O=C(c1ccccc1)c1n[nH]c(-c2ccccc2)cc1=O	14.9%
COC(=O)CSc1nnc(NC(=O)C2CC(=O)N(c3ccc(F)cc3)C2)s1 (centres unmarked)	10.2%
C/C(=N\NC(=O)NC1CCCCC1)C1CCCCC1	17.6%
COc1ccc(/C=N/NC2=NCCCCC2)cc1	-1.05%
CCOC(=O)C1CCCN(S(=O)(=O)c2ccc(Cl)nc2)C1 (centres unmarked)	5.12%
COc1ccc(C(=O)NCC(=O)NC2=NCCS2)cc1	11.3%
CC(C)(C)C(=O)Nc1nc2c(s1)COc1ccccc1-2	-2.68%

Compound	hERG current change (%, negative = inhibition) at 1uM
O=C(CN(C(=O)c1csnn1)c1cccc2ccccc12)NCc1ccccc1	15.9%
CCSc1ncc(/C=N/Nc2ccc(Cl)cc2)n1C	3.53%
COc1ccccc1CCNC(=O)C(=O)NCC1OCCN1S(=O)(=O)c1cccs1 (centres unmarked)	12.1%
CC(C)(C)NC(=O)C(c1ccncc1)N(CC1CCCO1)C(=O)Cn1nnc(-c2ccc(F)cc2)n1 (centres unmarked)	4.76%
Cl.Nc1scc(-c2ccncc2)c1Cl	11.5%
O=C(Cn1cnc2c(nnn2Cc2ccccc2)c1=O)N1CCCc2ccccc21	5.58%
O=C(Cn1cnc([N+](=O)[O-])n1)NCCc1ccccc1	9.14%
COc1ccc(/C=N/Nc2nc(-c3cccnc3)nc3ccccc23)c(OC)c1	10.2%
O=C(OCc1nc2scc(-c3ccccc3)c2c(=O)[nH]1)c1ccco1	-2.93%
CCCCCCOc1ccc(N2C(=O)CC(NCCc3ccc(S(N)(=O)=O)cc3)C2=O)cc1 (centres unmarked)	16%
COc1ccc(NC(=O)CN(C)C(=O)CN2C(=O)NC3(CCCC3)C2=O)cc1	4.4%
CCNS(=O)(=O)c1ccc(NC(=O)Nc2ccccc2OC)cc1	8.91%
CCOC(=O)c1[nH]cnc1C(=O)Nc1ccccc1OC	2.47%
COCCNS(=O)(=O)c1cc(C(=O)O)ccc1OC	12.7%
C=C1CC[C@@]2(O)[C@H]3Cc4ccc(O)c5c4[C@@]2(CCN3CC2CC2)[C@H]1O5	3.67%
C=C1CC2C(CCC3(C)C2CCC3(O)C(C)=O)C2(C)CCC(=O)C=C12 (centres unmarked)	18.4%
CN(CC(O)COc1ccc(S(=O)(=O)N2CCOCC2)cc1)C1CCCCC1 (centres unmarked)	0.581%
O=C(CC(c1ccccc1)c1ccccc1O)NCCN1CCOCC1 (centres unmarked)	12.8%
Cc1cccc2c(-c3ccccc3)cc(=O)[nH]c12	10.7%
CCOC(=O)c1ccc(NC(=O)CN2C(=O)C3C4C=CC(C4)C3C2=O)cc1 (centres unmarked)	10.9%
O=C(O)CCS(=O)(=O)c1ccc(-c2ccccc2)cc1	13.5%
O=C1NC(=O)N(Cc2ccco2)C(=O)/C1=C\c1ccc(-c2ccc(F)cc2)o1	7.38%
O=C1C(=O)N(CCCO)C(c2ccccc2)/C1=C(\O)c1ccc(Br)cc1 (centres unmarked)	14.6%

Compound	hERG current change (%, negative = inhibition) at 1uM
N/C(=N\OC(=O)CCCc1ccccc1)c1ccc(Br)cc1	13.4%
O=C(CCCC(=O)OCC(=O)c1ccc(Cl)cc1Cl)Nc1cc(C(F)(F)F)ccc1Cl	6.47%
C=CCOC(=O)C1=C(C)OC(N)=C(C#N)C1c1ccc(OC)c(CSc2ccccn2)c1 (centres unmarked)	5.31%
O=C(CSc1nnc(C2CCCCC2)n1Cc1ccccc1)NCc1ccco1	1.83%
CC(=O)c1ccc(NC(=O)c2ccn(C(=O)OCC(C)C)n2)cc1	-5.67%
O=C(Cc1csc(Nc2nc(=S)[nH]c3ccccc23)n1)NCCCN1CCN(c2cccc(Cl)c2)CC1	9.77%
O=C(COc1ccc(Cl)cc1Cl)NC(=O)N1CCOCC1	2.09%
COc1ccc(NC(=O)C2CCCN(S(=O)(=O)c3ccccc3)C2)c(OC)c1 (centres unmarked)	12.7%
COc1ccc(/C=C/C(=O)Nc2cccc(S(=O)(=O)N3CCCC3)c2)cc1OC	14.6%
Cc1ccc(N2CC(C(=O)Nc3ccc(S(=O)(=O)N4CCCC4)cc3)CC2=O)cc1C (centres unmarked)	11.2%
CCN1C(=O)/C(=C2\SC(=S)N(CCCOC)C2=O)c2ccccc21	3.86%
COC(=O)c1cn(CC(=O)Nc2ccc(F)cc2)c2ccccc12	8.52%
Cc1nc(SC2CC(=O)N(c3ccc([N+](=O)[O-])cc3)C2=O)nc2c1CCCC2 (centres unmarked)	9.26%
CC(N=C1NS(=O)(=O)c2ccccc21)C(=O)OCC(=O)N(C)C1CCS(=O)(=O)C1 (centres unmarked)	-1.85%
CCOC(=O)c1c(NC(=O)C(C)S(=O)(=O)c2cn(CC)c3ccccc23)sc2c1CCCC2 (centres unmarked)	11.6%
Cc1ccc2nc(C)c(C(=O)N/N=C/c3ccc(C(=O)O)cc3)cc2c1	13.2%
O=C(NNC(=O)c1ccc2c(c1)OCO2)NC1CCCCC1	12.1%
CCOc1cc(NC(=O)c2ccco2)c(OCC)cc1NC(=O)CCc1ccccc1OC	3.94%
COc1ccc(C2=NOC3(CC(=O)N(c4ccc5ccccc5c4)C3=O)C2)c(OC)c1 (centres unmarked)	22.1%
CCOCCCNC(=O)c1cn(CC)c2ccc(S(=O)(=O)N3CCC(C)CC3)cc2c1=O	7.25%
